The target of the assay is bovine TSH (bovine, UniProt P01217 in part; P01223 in part). Briefly: gel filtration; unlabelled bTSH displaces ^125I-TSH from the complex. Background: SEC sorts molecules by how far they enter the pores of the column.

B1: sTSHR No. 6 in FIG. 1 (baculovirus gp 67 signal sequence added to amino acid residues of the 21st to the 415th of natural TSHR, six histidine residues at the … (receptor)
chain: not shown
Turning to B1, the binding result is “binds”.

B2: sTSHR No. 5 in FIG. 1 (baculovirus gp 67 signal sequence added to amino acid residues of the 21st to the 410th of natural TSHR, six histidine residues at the … (receptor)
chain: not shown
Take B2: the binding result is given as “binds”.
